Results: the RNAGym collection of RNA variant scans (doi:10.1073/pnas.2313332121)
Variants at the background level are over-represented here.

B1: TPR 5TU (parent)
chain: GGAUCUUCUCGAUCUAACAAAAAAGACAAAUCUGCCACAAAGCUUGAGAGCAUCUUCGGAUGCAGAGGCGGCAGCCUUCGGUGGCGCGAUAGCGCCAACGUUCUCAACUAUGACACGCAAAACGCGUGCUCCGUUGAAUGGAGUUUAUCAUG

Variants of: B1
Test: polymerase ribozyme fitness, log enrichment relative to wild type (log ratio); higher = more active; in vitro selection for triplet polymerase activity
Method in brief: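 Streptavidin-bead capture of gel-excised extended constructs, followed by RT-PCR, closed a single triplicate in vitro selection round. That round began by annealing PCR-built, transcribed mutant libraries of each subunit of a heterodimeric triplet polymerase ribozyme with a biotinylated primer, the partner subunit and triplets, then incubating them frozen at −7 °C. After Illumina sequencing of inputs and outputs, genotypes needed ≥10 input reads and ≥1 read per output. Fitness is the base-2 logarithm of genotype enrichment over wild-type enrichment, using inverse-variance-weighted replicate averages.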

G58C A66C C87G U139A and C57G C75U G86A A91C cannot be ordered by “polymerase ribozyme fitness (log ratio)” value: no more than -4.2 for the first, no more than -4.2 for the second.

Going from C57U C99U A121U G133U U139G to G58U G141A, the “polymerase ribozyme fitness (log ratio)” value rises from no more than -4.2 to 1.05.

Going from G59A C85A A115G C123U to C57G U90G C103A A106C A113G, the “polymerase ribozyme fitness (log ratio)” value falls from -2.65 to no more than -4.2.

Compared with G58U A89G, G58A C125G G141U U146C is lower in “polymerase ribozyme fitness (log ratio)” value: -0.659 for the first, no more than -4.2 for the second.

Compared with G58C G94A, G58A C75U C118G is higher in “polymerase ribozyme fitness (log ratio)” value: -0.64 for the first, -0.168 for the second.

G58C C87A U127G and G59A G86C G126C A150G cannot be ordered by “polymerase ribozyme fitness (log ratio)” value: no more than -4.2 for the first, no more than -4.2 for the second.

Compared with G58A G117U, G59A G86U A91G C116A G141U U145A is lower in “polymerase ribozyme fitness (log ratio)” value: 1.04 for the first, no more than -4.2 for the second.

G58U G133A G140C and G59A C69G A91C cannot be ordered by “polymerase ribozyme fitness (log ratio)” value: no more than -4.2 for the first, no more than -4.2 for the second.

Going from G58C G59C C85G A98G G112C A122U G143A to C57G A121U U135C, the “polymerase ribozyme fitness (log ratio)” value rises from no more than -4.2 to -2.26.

Compared with G58C C96U A150G, C57U G59A A60C C75A C93U is lower in “polymerase ribozyme fitness (log ratio)” value: -0.919 for the first, no more than -4.2 for the second.

Going from C57G G124U U148G to C57U C79A, the “polymerase ribozyme fitness (log ratio)” value rises from no more than -4.2 to -4.19.

First: C57U C79G
Second: C57U C131U
The “polymerase ribozyme fitness (log ratio)” value of the first is lower: -3.67 for the first, 1.26 for the second.

G58U G67U G84U A97U G117A G126A G141A A150G and G59A A64C C69U cannot be ordered by “polymerase ribozyme fitness (log ratio)” value: no more than -4.2 for the first, no more than -4.2 for the second.

G58C A73G G88A C114U U151C and C57G G94U C149G cannot be ordered by “polymerase ribozyme fitness (log ratio)” value: no more than -4.2 for the first, no more than -4.2 for the second.

Compared with G59A U78G A91U U102G, G59A G71A G117C is higher in “polymerase ribozyme fitness (log ratio)” value: no more than -4.2 for the first, -3.56 for the second.

C57U C85A G124U A147C C149G and G58A C87G cannot be ordered by “polymerase ribozyme fitness (log ratio)” value: no more than -4.2 for the first, no more than -4.2 for the second.

Going from G58A U61A G88C G133U to G58C G68A, the “polymerase ribozyme fitness (log ratio)” value rises from no more than -4.2 to -3.97.

G58C A64C C79A G117U and G59A C85G C99U A120G cannot be ordered by “polymerase ribozyme fitness (log ratio)” value: no more than -4.2 for the first, no more than -4.2 for the second.

Compared with G58C U139C, G58A C75G C76U U134A is lower in “polymerase ribozyme fitness (log ratio)” value: -3.3 for the first, no more than -4.2 for the second.

Going from G58A C75U A91G C95G to G58C A89U C95A G126U, the “polymerase ribozyme fitness (log ratio)” value rises from no more than -4.2 to -0.892.

Compared with G58U C63G A142C, C57U G94U C118U G143U is lower in “polymerase ribozyme fitness (log ratio)” value: -1.41 for the first, no more than -4.2 for the second.

Compared with G58A G71U, G58U G86A U130C is higher in “polymerase ribozyme fitness (log ratio)” value: -0.673 for the first, 0.803 for the second.

Compared with G58A A147U, C57U G86U A107U U130G is lower in “polymerase ribozyme fitness (log ratio)” value: 0.692 for the first, no more than -4.2 for the second.

Going from C57G G117U G124C to G59A C85G C123G U127G, the “polymerase ribozyme fitness (log ratio)” value falls from -1.64 to no more than -4.2.

C57U C75A C85G A106U G112C U127C C131G G141A and G58A G88C G92A C96A cannot be ordered by “polymerase ribozyme fitness (log ratio)” value: no more than -4.2 for the first, no more than -4.2 for the second.

Going from C57G U82C C93A C95U C116U to G59A G94A U130G A150G, the “polymerase ribozyme fitness (log ratio)” value falls from -3.34 to no more than -4.2.

First: C57U C95A A97C C123A
Second: G58C G126U U145G
The “polymerase ribozyme fitness (log ratio)” value of the first is higher: -0.924 for the first, -3.82 for the second.

Compared with G59A G92C, G58C A66C is lower in “polymerase ribozyme fitness (log ratio)” value: -2.78 for the first, no more than -4.2 for the second.

Compared with G59C A60U G68A C75A C108A, C57U A73G G81A C95U C99U G143U U148C is lower in “polymerase ribozyme fitness (log ratio)” value: -4.15 for the first, no more than -4.2 for the second.

First: C57U C69A G84U A121C
Second: C57U G59C C79U G81C A142C U146A
The “polymerase ribozyme fitness (log ratio)” value of the first is higher: -2.25 for the first, no more than -4.2 for the second.

G58C C69A A73C and G59A G81U G86A A119U C131U U148A U151A cannot be ordered by “polymerase ribozyme fitness (log ratio)” value: no more than -4.2 for the first, no more than -4.2 for the second.

C57U C76G C96U and G58A A64G G88U C96A C105U C125U G126C cannot be ordered by “polymerase ribozyme fitness (log ratio)” value: no more than -4.2 for the first, no more than -4.2 for the second.

Going from C57G C87G C93A A98G G124A U134G to C57U C75G, the “polymerase ribozyme fitness (log ratio)” value rises from no more than -4.2 to -3.63.

C57G G71U C72G G84U G133U A137U and G58C C93U G94A G128A A137U U139G cannot be ordered by “polymerase ribozyme fitness (log ratio)” value: no more than -4.2 for the first, no more than -4.2 for the second.

Going from G58A C87U C108U A142C to G58A C85G G88A G124A, the “polymerase ribozyme fitness (log ratio)” value falls from -3.89 to no more than -4.2.

First: G58C G83U
Second: C57U C76U G83C U109G A110C A138C
The “polymerase ribozyme fitness (log ratio)” value of the first is higher: -2.88 for the first, no more than -4.2 for the second.

G59A C69A G86U A89C C95G and G59A C79G C93G A98G cannot be ordered by “polymerase ribozyme fitness (log ratio)” value: no more than -4.2 for the first, no more than -4.2 for the second.

G58A G68A C87G G88U C93U A142U and G59A G80U U127G cannot be ordered by “polymerase ribozyme fitness (log ratio)” value: no more than -4.2 for the first, no more than -4.2 for the second.

G58A G59A A122G U148C and C57G C69A are within 0.2 log units of each other in “polymerase ribozyme fitness (log ratio)” value: -2.64 for the first, -2.56 for the second.

Going from C57U C87A A97C C99G C103U to G58U G68A C95U, the “polymerase ribozyme fitness (log ratio)” value rises from no more than -4.2 to -4.01.

G59A C85U A113U G133C U151A and G58U A64G C85A C105A A107C A119C U134C cannot be ordered by “polymerase ribozyme fitness (log ratio)” value: no more than -4.2 for the first, no more than -4.2 for the second.

Compared with G58C A73G C85G, G58C G86U U102A A138G is lower in “polymerase ribozyme fitness (log ratio)” value: -2.21 for the first, no more than -4.2 for the second.
